# Reference: publication PMC4336329 (PLoS ONE, 2015)
# About 14,000 (4.5%) of roughly 310,000 compounds showed an effect of 50% or more. Effects have a minus sign here. This is one part of the list.
# Target: human ether-à-go-go-related gene (hERG) potassium channel (human, UniProt Q12809)
# Experiment: primary screen, population patch clamp on CHO cells stably expressing hERG
# 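Note: peak tail current of the secondary pulse compared with the same well before compound.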
# Sequence of human ether-à-go-go-related gene (hERG) potassium channel (Q12809 whole entry, looked up): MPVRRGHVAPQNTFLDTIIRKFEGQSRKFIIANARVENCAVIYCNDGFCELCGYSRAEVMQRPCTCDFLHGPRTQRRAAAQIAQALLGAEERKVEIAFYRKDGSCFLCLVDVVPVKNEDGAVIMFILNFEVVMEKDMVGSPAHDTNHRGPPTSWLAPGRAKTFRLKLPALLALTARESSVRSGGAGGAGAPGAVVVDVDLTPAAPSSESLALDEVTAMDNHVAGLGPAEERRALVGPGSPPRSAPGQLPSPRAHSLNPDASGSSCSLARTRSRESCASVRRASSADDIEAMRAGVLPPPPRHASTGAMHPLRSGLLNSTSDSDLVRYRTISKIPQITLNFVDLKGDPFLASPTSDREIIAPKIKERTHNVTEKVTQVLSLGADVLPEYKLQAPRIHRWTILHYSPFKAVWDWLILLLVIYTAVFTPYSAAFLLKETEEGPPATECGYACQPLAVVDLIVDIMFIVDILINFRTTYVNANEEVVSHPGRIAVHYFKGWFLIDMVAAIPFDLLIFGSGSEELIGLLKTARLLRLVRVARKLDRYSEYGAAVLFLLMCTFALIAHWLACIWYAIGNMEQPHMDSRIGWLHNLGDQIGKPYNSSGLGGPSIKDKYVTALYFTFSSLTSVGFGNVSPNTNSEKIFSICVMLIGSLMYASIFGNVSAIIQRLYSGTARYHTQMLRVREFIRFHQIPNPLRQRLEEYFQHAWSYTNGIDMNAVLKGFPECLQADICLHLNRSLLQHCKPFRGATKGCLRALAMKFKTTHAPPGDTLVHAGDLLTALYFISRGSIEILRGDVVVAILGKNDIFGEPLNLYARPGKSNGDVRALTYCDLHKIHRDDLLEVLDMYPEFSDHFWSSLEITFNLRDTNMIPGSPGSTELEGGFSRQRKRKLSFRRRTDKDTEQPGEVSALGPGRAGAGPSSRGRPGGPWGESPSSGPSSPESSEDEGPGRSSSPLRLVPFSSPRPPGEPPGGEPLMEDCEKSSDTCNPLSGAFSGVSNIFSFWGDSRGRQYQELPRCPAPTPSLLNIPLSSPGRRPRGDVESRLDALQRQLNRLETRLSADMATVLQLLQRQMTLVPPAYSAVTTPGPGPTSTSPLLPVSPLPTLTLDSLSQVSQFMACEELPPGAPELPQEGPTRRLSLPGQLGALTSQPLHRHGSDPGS
row,Structure (SMILES),"hERG current change (%, negative = inhibition) at 10uM [%]"
1,CCN(Cc1ccccc1)S(=O)(=O)c1ccc2c(c1)NC(=O)CS2,-44.5
2,CCn1c(SCC(=O)N2CCCC2)nnc1-c1ccc(S(=O)(=O)N2CCCCCC2)cc1,-6.15
3,C=CCC1c2cccc(C(=O)O)c2C(=O)N1c1cccc(C)c1 (centres unmarked),12.2
4,COc1ccc2c(c1O)[C@]13CCN(C)[C@H](C2)[C@@H]1CCC(=O)C3,-13.5
5,Cc1ccc(OCCCCn2cnc3ccccc32)c(C)c1.O=C(O)C(=O)O,-20.5
6,CSc1ccc(-c2cccc([N+](=O)[O-])c2)nn1,12.5
7,CC(=O)c1ccc(N2CCN(CC(=O)Nc3ccccc3N3CCOCC3)CC2)cc1,-7.49
8,O=C(NCCCNC(=O)c1ccc(-c2cc(Cl)ccc2Cl)o1)c1cnccn1,-39.1
9,O=C(Nc1ccc(-c2csc(Nc3ccc(Cl)cc3)n2)cc1)c1cc([N+](=O)[O-])cc(C(F)(F)F)c1,13.1
10,CCn1nnnc1NCc1ccc(SC)cc1,18.9
11,O=C(Cc1ccccc1)NCc1cccnc1,4.9
12,CCOC(=O)Cn1c(=O)c2c(nc(N3CCOCC3)n2C)n(C)c1=O,-4.47
13,Cc1cccc(NC(=O)NNC(=O)c2cc(-c3ccccc3Cl)nc3ccccc23)c1,2.58
14,Cc1cc(C)c(NC(=O)CCN2C(=O)c3ccccc3S2(=O)=O)c(C)c1,12.6
15,O=S(=O)(c1ccccc1)N1CCN(Cc2cccc(Cl)c2)CC1,-18.1
16,CC(O)CSc1nc2c(c(=O)[nH]c(=O)n2C)n1Cc1ccccc1Cl (centres unmarked),-5.33
17,Cc1sc2ncnc(N3CCCCC3)c2c1C,-11.9
18,Cc1cc([N+](=O)[O-])ccc1NC(=O)c1cc2ccccc2o1,16.3
19,Cc1ccc2nc(-c3cccc(Br)c3)cc(C(=O)NC3=NCCS3)c2c1,31.9
20,O=C(c1n[nH]c(=O)c2ccccc12)N1CCN(c2ccccc2)CC1,-4.74
21,N/C(=N\OC(=O)c1ccc(Cl)cc1Cl)c1cccnc1,-0.864
22,Cc1ccsc1/C=N/Nc1ncnc2nc[nH]c12,-11.7

row,Structure (SMILES),"hERG current change (%, negative = inhibition) at 10uM [%]"
1,COCCCNC(=O)CN1C(=O)/C(=C\c2ccc(C)cc2)Sc2ccccc21,-15.8
2,Clc1ccc(Cl)c(OCCN2CCCC2)c1,-38.8
3,COC(=O)CN(c1ccc(C)cc1)S(=O)(=O)c1c(C)[nH]c(=O)[nH]c1=O,0.0858
4,Cn1c2ccccc2c2cnn(CC(=O)Nc3cccc(F)c3)c(=O)c21,12.8
5,COc1ccc(NS(=O)(=O)c2cc(NC(=O)c3cc(=O)c4ccccc4o3)ccc2OC)cc1,-4.65
6,FC(F)Sc1ccc(NC(=S)NC2CCCCC2)cc1,-1.2
7,Cc1cc(C)n(C(=O)CNC(=O)c2ccc3c(c2)OCCO3)n1,2.34
8,CCSC1=N/C(=C\c2cccnc2)C(=O)N1c1ccccc1,-29.5
9,CCn1cnc2c(Nc3cccc(Cl)c3)nc(C#N)nc21,6.19
10,Cc1ccnc(SCC(=O)NC2CCCCCC2)n1,-6.97
11,FC(F)(F)c1cc(-c2cccs2)nc2ncnn12,1.4
12,C=CCn1c(SCC(=O)Nc2cc(NC(C)=O)ccc2OC)nnc1-c1ccccn1,-8.09
13,CCOc1cc(/C=N/NC(=O)C(N)=O)cc(Br)c1O,19.5
14,CCCn1c(=O)c(C(=O)NCc2ccco2)c(O)c2ccccc21,9.11
15,COc1ccc(CCN2CC(C(=O)NCC(=O)Nc3ccc(F)c(F)c3)CC2=O)cc1OC (centres unmarked),1.09
16,O=C(NCc1nc2ccccc2[nH]1)C1=C[C@H](c2ccccc2)C[C@H](OCCCCO)O1,-36.3
17,Cc1cc(C)c2nc(N3CCN(C(=O)c4ccco4)CC3)sc2c1,-28.5
18,Fc1ccc2c(c1)nnn2C1CCN(Cc2ccccc2)CC1,-61.4
19,COC(=O)c1ccccc1NS(=O)(=O)c1ccc2[nH]c(=O)[nH]c2c1,16.4
20,CCOc1ccccc1-c1n[nH]c(=S)o1,22.5
21,Cn1cc(Br)c(C(=O)NC(=S)N2CCN(c3ccccn3)CC2)n1,11.1
22,Cc1cc(C)n(C(C)CNS(=O)(=O)c2ccccc2)n1 (centres unmarked),22.1

row,Structure (SMILES),"hERG current change (%, negative = inhibition) at 10uM [%]"
1,CCN(CC)S(=O)(=O)c1ccc(Cl)nc1,-0.5
2,COc1ccccc1N1CCN(S(=O)(=O)CCNC(=O)c2cc(=O)c3ccccc3o2)CC1,7.33
3,Cc1ccc(C(C(=O)NC2CCCCC2)N(Cc2ccco2)C(=O)C2COc3ccccc3O2)o1 (centres unmarked),-6.27
4,COc1ccc(C(=O)NC2CCN(C(=O)Nc3ccc(F)cc3)CC2)cc1,-17.9
5,Cc1noc(C)c1C(=O)N1CCC(C(=O)c2ccccc2)CC1,-3.77
6,O=C(N/N=C/c1cccnc1)c1ccccc1NS(=O)(=O)c1cccs1,32.1
7,CCN(CC)C(=O)COc1ccc(S(=O)(=O)N2CCOCC2)cc1,0.481
8,Cn1cc(S(=O)(=O)CC(=O)Nc2ccc3c(c2)OCO3)c2ccccc21,-6.03
9,CCOC(=O)N1CCN(C(=O)c2cccc(NC3=NC4CS(=O)(=O)CC4S3)c2)CC1 (centres unmarked),4.31
10,Cc1nn(-c2ccccc2)c(N2CCCC2)c1/C=N/Nc1ccc(S(=O)(=O)Nc2ccccc2)cc1[N+](=O)[O-],7.3
11,CCOc1cc(/C=C/c2cccc[n+]2C)ccc1OCC(=O)Nc1ccc(C)cc1.[I-],11.1
12,O=S(=O)(c1ccc(Nc2ccc(-c3ccc4c(c3)OCCO4)nn2)cc1)N1CCCC1,5.27
13,CC1CCc2c(C(=O)Nc3ccc(OC(F)(F)F)cc3)csc2C1 (centres unmarked),-4.3
14,COCCNC(=O)C1=C(N)C(C(=O)Nc2ccc(C)c(S(=O)(=O)N3CCCCC3)c2)SC1=Nc1ccc(C)cc1C (centres unmarked),17.3
15,CCSC1=C(C#N)C(=O)n2c1cc1c2CCCC1,3.76
16,CCOC(=O)c1sc2nc3n(c(=O)c2c1C)CCC3,1.58
17,CCCc1cc(=O)oc2cc(OCC(=O)N3CCC(C(=O)O)(c4ccccc4)CC3)ccc12,6.41
18,CSc1ccccc1NC(=O)Nc1cccc(Cl)c1C,18
19,COc1ccc(C(=O)N/C(=C\c2cn(S(=O)(=O)N(C)C)c3ccccc23)C(=O)NCCN2CCOCC2)cc1,-9.75
20,C=CCn1c(SC(F)F)nc2scc(-c3ccco3)c2c1=O,11
21,N#C/C(=C(/O)c1ccc(Cl)cc1)c1nc2ccccc2[nH]1,7.3
22,O=C(NCCC1=CCCCC1)c1ccc(Cl)c(S(=O)(=O)Nc2ccccc2)c1,11.5

row,Structure (SMILES),"hERG current change (%, negative = inhibition) at 10uM [%]"
1,COc1ccc(CN(C)C(=O)Cn2ccc(NC(=O)OCc3ccccc3)nc2=O)cc1OC,-20.4
2,COc1cc(/C=C2/NC(=O)NC2=O)cc(Br)c1OCc1cccc(C(=O)O)c1,19.2
3,N#CCCn1nnc2ccccc21,5.87
4,COc1ccc(Cn2c(O)c(/C=N/NC(=O)c3ccncc3)c(=O)[nH]c2=O)cc1,13.3
5,COc1ccc(-n2c(Cc3cccn3C)nnc2SCC(=O)NCC2CCCO2)cc1 (centres unmarked),8.01
6,CCOC(=O)C1=C(C)N(C)C(=S)NC1c1ccccc1Cl (centres unmarked),-5.25
7,CCOC(=O)CCS(=O)(=O)c1ccc(-c2ccc(S(=O)(=O)CCC(=O)OCC)cc2)cc1,-22.7
8,COc1cccc(CNC(=O)C2CCC(CNc3nc(=S)[nH]c4ccccc34)CC2)c1 (centres unmarked),7.39
9,CC1(C)CC(=O)c2c(oc3cc(O)c(O)cc23)C1,1.26
10,CC(C)(C)c1cccc(Oc2nn[nH]n2)c1,1.15
11,CCOC(=O)c1cc2c(nc1NC(=S)Nc1ccccc1)CC(C)(CC)OC2 (centres unmarked),18.5
12,Cc1ccccc1NC(=O)Nc1c(C)n(C)n(-c2ccccc2)c1=O,-31.8
13,CCCc1nnc(NC(=O)CCC(=O)Nc2ccc(F)cc2)s1,0.689
14,Cc1ccc(C)c(OC(C)C(=O)Nc2ccc(S(=O)(=O)Nc3nccs3)cc2)c1 (centres unmarked),-6.04
15,CCOC(=O)C(NC(C)=O)(Nc1ccc(S(=O)(=O)Nc2onc(C)c2C)cc1)C(F)(F)F (centres unmarked),14.3
16,Cc1ccccc1S(=O)(=O)Cc1ccc(C(=O)NCCCN2CCCC(C)C2)o1 (centres unmarked),-21.1
17,O=C(c1cccnc1)N1CCN(c2ccc([N+](=O)[O-])cc2Cl)CC1,-65
18,CC(=O)c1ccc(NC(=S)N2CCN(S(=O)(=O)c3ccc(F)cc3)CC2)cc1,-38.1
19,COc1ccc(OC)c(/C=N/NC(=O)c2[nH]nc3c2CCc2ccccc2-3)c1,21.3
20,CC(=O)Nc1ccc(S(=O)(=O)N2CCN(c3cc4c(cc3[N+](=O)[O-])n(C)c(=O)n4C)CC2)cc1,-16.3
